# Source: PubChem BioAssay AID1508649 (National Center for Advancing Translational Sciences (NCATS), 2021)
# Out of some 43,000 compounds screened, about 830 (1.9%) were called active. Inconclusive means that the source gave no clear call. Such entries were picked first, then a sample of the others. The calls were made as follows: active = clear falling dose curves in both reporters; inconclusive = both reporters move, but less clearly or upward; inactive = either reporter flat; the % is the NLuc reporter signal. Potencies of inconclusive entries are left out as doubtful fits.
# Experiment: Cell-based coincidence reporter assay to measure PMP22 gene transcription in S16 Pmp22-F2sN cells - Primary screen
# Conditions: S16 Pmp22-F2sN Schwann cells (luciferase reporters placed in the Pmp22 gene), FLuc/NLuc coincidence luminescence, 24 h; measured here: NLuc reporter readout, at 57.5 µM (top of the series)
# Summary of the method: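 Transcriptional readout in edited S16(c9) cells: two luciferases reported from the Pmp22 locus, measured in turn after 24 h compound incubation.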
# Potency is read from the fitted curve at half-maximal effect; tags tell the direction and shape of the fitted curve.
row,Compound,Potency
1,Cc1ccc(NC(=O)CSc2nc(-c3ccc(F)cc3)nc3c2Cc2c(CO)cnc(C)c2O3)cc1C,inactive
2,CC(=O)N1c2ccc(S(=O)(=O)NCC3CCC(C(=O)Nc4ccccc4C)CC3)cc2CC1C (stereo not drawn),inactive
3,CCc1ccc(OCC(=O)N(Cc2ccc(C)cc2)Cc2ccco2)cc1,"inconclusive [phenotype inactive, single point]"
4,CCCN1C(=O)C(O)(CC(=O)c2ccc(CC)cc2)c2cc(Br)ccc21 (stereo not drawn),active: 12.6 µM
5,CC1CCN(C(=O)Cn2cc(SCc3cccc(F)c3)c3ccccc32)CC1,"inconclusive [phenotype inactive, single point]"
6,CC1CCN(C(=O)Cn2cc(SCc3ccccc3)c3ccccc32)CC1,"inconclusive [phenotype inactive, single point]"
7,COc1ccc(N2CCN(C(=O)CCc3c(C)nc4c(-c5ccccc5)c(C)nn4c3C)CC2)cc1,"inconclusive [phenotype inactive, single point]"
8,O=S(=O)(NCC(c1ccco1)S(=O)(=O)c1ccccc1)c1ccccc1 (stereo not drawn),"inconclusive [phenotype inactive, single point]"
9,CC(C)c1ccc(NC(=O)C2CCN(S(=O)(=O)c3cccc4nsnc34)CC2)cc1,"inconclusive [phenotype inactive, partial curve, poor fit]"
10,CCCOc1ccc(-c2nc3ccccc3c(=O)o2)cc1,inactive
11,COc1cccc(NC(=O)CSc2cc(=O)n(C)c3ccc(Cl)cc23)c1,"inconclusive [phenotype inactive, partial curve, poor fit]"
12,CCN(c1ccccc1)S(=O)(=O)c1ccc2[nH]cc(C(=O)NC3CCCCC3)c(=O)c2c1,"inconclusive [phenotype inactive, single point]"
13,CC(C)c1ccc(NC(=O)CSC2=Nc3ccccc3C3=NC(CCC(=O)NC4CCCCC4)C(=O)N23)cc1 (stereo not drawn),inactive
14,Cc1c(C(=O)Nc2ccccc2Br)oc2ccc(S(=O)(=O)N3CCCCCC3)cc12,"inconclusive [phenotype inactive, single point]"
15,Cc1ccccc1-c1nc(CN2CCCC(C(=O)NCc3ccc(Cl)cc3)C2)c(C)o1 (stereo not drawn),"inconclusive [phenotype inactive, single point]"
16,Cc1cc(C)cc(-n2ccnc2SCC(=O)Nc2cccc3ccccc23)c1,"inconclusive [phenotype inactive, single point]"
17,COc1ccccc1C1NC(=O)c2n[nH]c(-c3cccs3)c21 (stereo not drawn),"inconclusive [phenotype inactive, single point]"
18,Cc1cc(C)cc(OCCSc2nc3ccc(NC(=O)c4ccc5c(c4)OCO5)cc3s2)c1,inactive
19,CCc1ccc(OCC(=O)Nc2ccc3c(c2)c2ccccc2n3CC)cc1,"inconclusive [phenotype inactive, single point]"
20,CCOc1ccc(-c2cn3c(n2)sc2cc(C(=O)NCCCN4CCCCCC4)ccc23)cc1,"inconclusive [phenotype inactive, single point]"

row,Compound,Potency
1,O=S(=O)(c1ccccc1)c1nc(-c2ccccc2Cl)oc1N1CCCCCC1,"inconclusive [phenotype inactive, single point]"
2,Cc1cc(C)c(S(=O)(=O)NCCS(=O)(=O)N2CCN(c3ccccc3)CC2)c(C)c1,"inconclusive [phenotype inactive, single point]"
3,CCOC(=O)c1cccc(NC(=O)c2ncoc2-c2ccco2)c1,"inconclusive [phenotype inactive, partial curve, poor fit]"
4,COC(=O)c1ccccc1NC(=O)Cn1cnc2sc(C)c(S(=O)(=O)N3CCC(C)CC3)c2c1=O,inactive
5,COc1cccc(Nc2nc3cc(C)ccc3nc2NS(=O)(=O)c2ccc(Cl)cc2)c1,"inconclusive [phenotype inactive, single point]"
6,O=C(NCc1ccccc1)C(=O)Nc1c2c(nn1-c1ccc(F)cc1)CSC2,"inconclusive [phenotype inactive, partial curve, poor fit]"
7,COc1cccc(NC(=O)C2CCC(CNS(=O)(=O)c3ccc4c(c3)CCCC(=O)N4)CC2)c1 (stereo not drawn),"inconclusive [phenotype inactive, single point]"
8,CCN(CC)C(=O)c1sc2c(c1C)c(=O)n(Cc1ccccc1)c(=O)n2Cc1ccccc1C,"inconclusive [phenotype inactive, single point]"
9,COc1ccc2c(CNCCc3ccc(SC)cc3)c(C(=O)O)n(Cc3ccc(F)cc3)c2c1,"inconclusive [phenotype inactive, single point]"
10,O=C1c2ccccc2-c2onc3c(N4CCN(C5CCCCC5)CC4)cc(NCCO)c1c23,inactive
11,CCc1ccc2oc(C(=O)N(Cc3ccc(N(C)C)cc3)Cc3ccco3)c(C)c2c1,"inconclusive [phenotype inactive, single point]"
12,Clc1ccc(CN2CCN(c3ncnc4sc5c(c34)CCCC5)CC2)cc1Cl,"inconclusive [phenotype inactive, full curve, poor fit]"
13,CCc1nc2ccc(C(=O)N3CCN(c4ccccc4F)CC3)cc2nc1CC,"inconclusive [phenotype inactive, single point]"
14,Cc1ccc(Cl)cc1N1CCN(C(=O)Cn2cnc3onc(-c4ccc(F)cc4)c3c2=O)CC1,"inconclusive [phenotype inactive, single point]"
15,CCOc1ccc(NC(=O)Cn2c(=O)n(CCc3ccccc3)c(=O)c3c4c(sc32)CCCC4)cc1,"inconclusive [phenotype inactive, single point]"
16,Cc1oc(-c2cccc(Cl)c2)nc1CN1CCC(C(=O)NC(C)C)CC1,inactive
17,Cc1cc(C)c(S(=O)(=O)Nc2ccc3oc(C)c(C(=O)OC(C)C)c3c2)cc1C,"inconclusive [phenotype inactive, single point]"
18,O=C(COc1ccc(Br)cc1Br)Nc1ccc(S(=O)(=O)Nc2ncccn2)cc1,inactive
19,Cc1ccc(CNS(=O)(=O)c2ccc(N3CCCCS3(=O)=O)cc2)cc1,"inconclusive [phenotype inactive, partial curve]"
20,COc1cc(Cn2c(=O)oc3ccc(C)cc32)ccc1OCCC(C)C,"inconclusive [phenotype inactive, single point]"

row,Compound,Potency
1,CCc1ccc(NC(=O)C2CCN(c3nn4cc(-c5ccc(OC)cc5)nc4s3)CC2)cc1,inactive
2,COc1ccc(-c2nc3c(c(SCC(=O)Nc4cccc(O)c4)n2)Cc2c(CO)cnc(C)c2O3)cc1,"inconclusive [phenotype inactive, single point]"
3,COc1ccc(Nc2oc(-c3ccc(COc4cccc(C)c4)o3)nc2C#N)cc1,"inconclusive [phenotype inactive, partial curve, poor fit]"
4,Cc1ccc(-c2nc3ccccc3[nH]2)cc1NC(=O)COc1ccccc1[N+](=O)[O-],"inconclusive [phenotype inactive, single point]"
5,COc1ccc(C2C=C(c3ccc(F)cc3)Nc3nc(-c4ccc(Cl)cc4)nn32)cc1 (stereo not drawn),"inconclusive [phenotype inactive, single point]"
6,CCn1c(=O)c2cc(C(=O)N(CCCOC(C)C)Cc3ccco3)sc2c2ccccc21,"inconclusive [phenotype inactive, single point]"
7,COc1cccc(CC(=O)Nc2ccc3nc(N4CCC(C)CC4)cc(C)c3c2)c1,"inconclusive [phenotype inactive, single point]"
8,O=S(=O)(c1ccc(Br)cc1)c1nnn2c1nc(NC1CCCCCC1)c1sccc12,"inconclusive [phenotype inactive, partial curve, poor fit]"
9,CCOc1ccc(CNC(=O)CCC(=O)N2CC3CCCN3c3ccccc32)cc1 (stereo not drawn),inactive
10,Cc1c(C(=O)NCc2ccc(Cl)cc2)sc2nc3n(c(=O)c12)CCCC3,inactive
11,CCCCN(Cc1ccccc1)S(=O)(=O)c1ccc2c(c1)CC(C)N2C(=O)CC (stereo not drawn),"inconclusive [phenotype inactive, single point]"
12,CCn1c(=N)c(C(=O)NCc2cccnc2)cc2c(=O)n3cc(C)ccc3nc21,inactive
13,CC(C)(C)OC(=O)N1CCC(c2c(C(=O)N3CCc4ccccc4C3)cnn2-c2ccc(Cl)cc2)CC1,"inconclusive [phenotype inactive, single point]"
14,CCN(CC)c1ccc(-c2nc(-c3ccncc3)no2)cc1[N+](=O)[O-],inactive
15,COc1ccc(C2CC(=O)c3c([nH]c(C(=O)OC4CCC(C)CC4)c3C)C2)cc1OC (stereo not drawn),inactive
16,Cc1cc(C)c(S(=O)(=O)Nc2ccc3oc4c(c3c2)CCCC4)cc1C,"inconclusive [phenotype inactive, single point]"
17,CCOC(=O)c1c(C)[nH]c(C)c1S(=O)(=O)N1CCC(C(=O)N2CCN(c3cccc(C)c3)C(C)C2)CC1 (stereo not drawn),"inconclusive [phenotype inactive, single point]"
18,CCOc1ccc(OCC)c(NC(=O)c2nnn(Cc3cc(Br)ccc3OC)c2N)c1,inactive
